The supplement of paper PMC8728848
The list shows a part of the results.

Tests used:
Assay in all cases: glycan array binding signal (z-score within array); higher = stronger binding
Settings in all cases: glycan notation: IUPAC condensed, linker removed
[1] = target: Fuc(a1-2)[Gal(a1-3)]Gal(b1-4)Glc
Procedure, shortened: (§1)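 Columns mapping to the same glycan were averaged after glycan names were converted to IUPAC-condensed notation. The data come from 3228 arrays in the Consortium for Functional Glycomics database, limited to those with an available protein sequence. Binding is reported as a within-array Z-score averaged across arrays of one protein sequence and across linkers.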

[2] = target: Fuc(a1-2)[Gal(a1-3)]Gal(b1-4)GlcNAc
Procedure, shortened: as §1

[3] = target: Fuc(a1-2)[Gal(a1-3)]Gal(b1-4)GlcNAc(b1-2)Man(a1-3)[Fuc(a1-2)[Gal(a1-3)]Gal(b1-4)GlcNAc(b1-2)Man(a1-6)]Man(b1-4)GlcNAc(b1-4)GlcNAc
Procedure, shortened: as §1

[4] = target: Fuc(a1-2)[Gal(a1-3)]Gal(b1-4)GlcNAc(b1-2)Man(a1-3)[Fuc(a1-2)[Gal(a1-3)]Gal(b1-4)GlcNAc(b1-2)Man(a1-6)]Man(b1-4)GlcNAc(b1-4)[Fuc(a1-6)]GlcNAc
Procedure, shortened: as §1

[5] = target: Fuc(a1-2)[Gal(a1-3)]Gal(b1-4)GlcNAc(b1-3)GalNAc
Procedure, shortened: as §1

[6] = target: Fuc(a1-2)[Gal(a1-3)]Gal(b1-4)[Fuc(a1-3)]Glc
Procedure, shortened: as §1

[7] = target: Fuc(a1-2)[Gal(a1-3)]Gal(b1-4)[Fuc(a1-3)]GlcNAc
Procedure, shortened: as §1

[8] = target: Fuc(a1-2)[Gal(a1-3)]Gal(b1-4)[Fuc(a1-3)]GlcNAc(b1-3)GalNAc
Procedure, shortened: as §1

[9] = target: Fuc(a1-2)[Gal(a1-4)]Gal(b1-4)GlcNAc
Procedure, shortened: as §1

[10] = target: Fuc(a1-2)[GalNAc(a1-3)]Gal
Procedure, shortened: as §1

[11] = target: Fuc(a1-2)[GalNAc(a1-3)]Gal(b1-3)GalNAc(a1-3)[Fuc(a1-2)]Gal(b1-4)GlcNAc
Procedure, shortened: as §1

[12] = target: Fuc(a1-2)[GalNAc(a1-3)]Gal(b1-3)GlcNAc
Procedure, shortened: as §1

[13] = target: Fuc(a1-2)[GalNAc(a1-3)]Gal(b1-3)GlcNAc(b1-2)Man(a1-3)[Fuc(a1-2)[GalNAc(a1-3)]Gal(b1-3)GlcNAc(b1-2)Man(a1-6)]Man(b1-4)GlcNAc(b1-4)GlcNAc
Procedure, shortened: as §1

[14] = target: Fuc(a1-2)[GalNAc(a1-3)]Gal(b1-3)GlcNAc(b1-2)Man(a1-3)[Fuc(a1-2)[GalNAc(a1-3)]Gal(b1-3)GlcNAc(b1-2)Man(a1-6)]Man(b1-4)GlcNAc(b1-4)[Fuc(a1-6)]GlcNAc
Procedure, shortened: as §1

[15] = target: Fuc(a1-2)[GalNAc(a1-3)]Gal(b1-3)GlcNAc(b1-3)GalNAc
Procedure, shortened: as §1

[16] = target: Fuc(a1-2)[GalNAc(a1-3)]Gal(b1-4)Glc
Procedure, shortened: as §1

[17] = target: Fuc(a1-2)[GalNAc(a1-3)]Gal(b1-4)GlcNAc
Procedure, shortened: as §1

[18] = target: Fuc(a1-2)[GalNAc(a1-3)]Gal(b1-4)GlcNAc(b1-2)Man(a1-3)[Fuc(a1-2)[GalNAc(a1-3)]Gal(b1-4)GlcNAc(b1-2)Man(a1-6)]Man(b1-4)GlcNAc(b1-4)GlcNAc
Procedure, shortened: as §1

[19] = target: Fuc(a1-2)[GalNAc(a1-3)]Gal(b1-4)GlcNAc(b1-2)Man(a1-3)[Fuc(a1-2)[GalNAc(a1-3)]Gal(b1-4)GlcNAc(b1-2)Man(a1-6)]Man(b1-4)GlcNAc(b1-4)[Fuc(a1-6)]GlcNAc
Procedure, shortened: as §1

[20] = target: Fuc(a1-2)[GalNAc(a1-3)]Gal(b1-4)GlcNAc(b1-3)Gal(b1-4)GlcNAc
Procedure, shortened: as §1

[21] = target: Fuc(a1-2)[GalNAc(a1-3)]Gal(b1-4)GlcNAc(b1-3)Gal(b1-4)GlcNAc(b1-3)Gal(b1-4)GlcNAc
Procedure, shortened: as §1

[22] = target: Fuc(a1-2)[GalNAc(a1-3)]Gal(b1-4)GlcNAc(b1-3)GalNAc
Procedure, shortened: as §1

[23] = target: Fuc(a1-2)[GalNAc(a1-3)]Gal(b1-4)[Fuc(a1-3)]GlcNAc
Procedure, shortened: as §1

[24] = target: Fuc(a1-2)[GalNAc(a1-3)]Gal(b1-4)[Fuc(a1-3)]GlcNAc(b1-3)GalNAc
Procedure, shortened: as §1

[25] = target: Fuc(a1-2)[GalNAc(a1-4)]Gal(b1-4)GlcNAc
Procedure, shortened: as §1

[26] = target: Fuc(a1-2)[GalNAc(b1-3)]Gal
Procedure, shortened: as §1

Fuc(a1-3)GlcNAc = target: Fuc(a1-3)GlcNAc
Procedure, shortened: as §1

[27] = target: Fuc(a1-3)[Gal(b1-4)]Glc6S
Procedure, shortened: as §1

[28] = target: Fuc(a1-3)[Gal(b1-4)]GlcNAc
Procedure, shortened: as §1

[29] = target: Fuc(a1-3)[Gal(b1-4)]GlcNAc(b1-2)Man(a1-3)[Fuc(a1-3)[Gal(b1-4)]GlcNAc(b1-2)Man(a1-6)]Man(b1-4)GlcNAc(b1-4)GlcNAc
Procedure, shortened: as §1

[30] = target: Fuc(a1-3)[Gal(b1-4)]GlcNAc(b1-2)Man(a1-3)[Fuc(a1-3)[Gal(b1-4)]GlcNAc(b1-2)Man(a1-6)]Man(b1-4)GlcNAc(b1-4)[Fuc(a1-6)]GlcNAc
Procedure, shortened: as §1

[31] = target: Fuc(a1-3)[Gal(b1-4)]GlcNAc(b1-3)Gal(b1-3)[Fuc(a1-4)]GlcNAc
Procedure, shortened: as §1

[32] = target: Fuc(a1-3)[Gal(b1-4)]GlcNAc(b1-3)GalNAc
Procedure, shortened: as §1

[33] = target: Fuc(a1-3)[Gal(b1-4)]GlcNAc(b1-4)Gal(b1-4)[Fuc(a1-3)]GlcNAc
Procedure, shortened: as §1

[34] = target: Fuc(a1-3)[Gal(b1-4)]GlcNAc(b1-4)Gal(b1-4)[Fuc(a1-3)]GlcNAc(b1-4)Gal(b1-4)[Fuc(a1-3)]GlcNAc
Procedure, shortened: as §1

[35] = target: Fuc(a1-3)[Gal(b1-4)]GlcNAc(b1-6)GalNAc
Procedure, shortened: as §1

[36] = target: Fuc(a1-3)[Gal(b1-4)]GlcNAc(b1-6)[Gal(b1-3)GlcNAc(b1-3)]Gal(b1-4)Glc
Procedure, shortened: as §1

[37] = target: Fuc(a1-3)[Gal(b1-4)]GlcNAc(b1-6)[Neu5Ac(a2-3)Gal(b1-3)]GalNAc
Procedure, shortened: as §1

[38] = target: Fuc(a1-3)[Gal(b1-4)]GlcNAc6S
Procedure, shortened: as §1

[39] = target: Fuc(a1-3)[Gal3S(b1-4)]GlcNAc
Procedure, shortened: as §1

[40] = target: Fuc(a1-3)[Gal3S(b1-4)]GlcNAc6S
Procedure, shortened: as §1

[41] = target: Fuc(a1-3)[GalNAc(b1-4)]GlcNAc
Procedure, shortened: as §1

Fuc(a1-4)GlcNAc = target: Fuc(a1-4)GlcNAc
Procedure, shortened: as §1

Fuc(b1-3)GlcNAc = target: Fuc(b1-3)GlcNAc
Procedure, shortened: as §1

Gal(a1-2)Gal = target: Gal(a1-2)Gal
Procedure, shortened: as §1

B1: RS2L (Ralstonia solanacearum), B5RXL5_RALSO (protein)
chain: MAQQGVFTLPANTSFGVTAFANAANTQTIQVLVDNVVKATFTGSGTSDKLLGSQVLNSGSGAIKIQVSVNGKPSDLVSNQTILANKLNFAMVGSEDGTDNDYNDGIAVLNWPLG
glycan array binding signal (z-score) [1]: -0.252
glycan array binding signal (z-score) [2]: -0.25
glycan array binding signal (z-score) [3]: -0.19
glycan array binding signal (z-score) [4]: 0.421
glycan array binding signal (z-score) [5]: -0.237
glycan array binding signal (z-score) [6]: -0.209
glycan array binding signal (z-score) [7]: -0.246
glycan array binding signal (z-score) [8]: -0.242
glycan array binding signal (z-score) [9]: 0.019
glycan array binding signal (z-score) [10]: -0.228
glycan array binding signal (z-score) [11]: -0.231
glycan array binding signal (z-score) [12]: -0.254
glycan array binding signal (z-score) [13]: -0.044
glycan array binding signal (z-score) [14]: 1.32
glycan array binding signal (z-score) [15]: -0.219
glycan array binding signal (z-score) [16]: -0.244
glycan array binding signal (z-score) [17]: -0.25
glycan array binding signal (z-score) [18]: -0.182
glycan array binding signal (z-score) [19]: 0.496
glycan array binding signal (z-score) [20]: -0.253
glycan array binding signal (z-score) [21]: -0.24
glycan array binding signal (z-score) [22]: -0.245
glycan array binding signal (z-score) [23]: -0.235
glycan array binding signal (z-score) [24]: -0.233
glycan array binding signal (z-score) [25]: -0.243
glycan array binding signal (z-score) [26]: -0.238
glycan array binding signal (z-score) (Fuc(a1-3)GlcNAc): -0.173
glycan array binding signal (z-score) [27]: -0.237
glycan array binding signal (z-score) [28]: -0.224
glycan array binding signal (z-score) [29]: -0.169
glycan array binding signal (z-score) [30]: -0.246
glycan array binding signal (z-score) [31]: -0.174
glycan array binding signal (z-score) [32]: -0.24
glycan array binding signal (z-score) [33]: -0.039
glycan array binding signal (z-score) [34]: -0.164
glycan array binding signal (z-score) [35]: -0.24
glycan array binding signal (z-score) [36]: -0.217
glycan array binding signal (z-score) [37]: -0.234
glycan array binding signal (z-score) [38]: -0.233
glycan array binding signal (z-score) [39]: -0.237
glycan array binding signal (z-score) [40]: -0.236
glycan array binding signal (z-score) [41]: -0.24
glycan array binding signal (z-score) (Fuc(a1-4)GlcNAc): -0.032
glycan array binding signal (z-score) (Fuc(b1-3)GlcNAc): 0.079
glycan array binding signal (z-score) (Gal(a1-2)Gal): -0.238
